Results as given in patent publication US20190263889A1 (ONCOC4, published 2019).

T1: human B7-1Fc fusion protein (human, UniProt P33681 35-242)
T1 construct: Used biotinylated in ELISA; also called B7-1 Ig; B7-1 Ig fusion protein
T1 sequence (looked up): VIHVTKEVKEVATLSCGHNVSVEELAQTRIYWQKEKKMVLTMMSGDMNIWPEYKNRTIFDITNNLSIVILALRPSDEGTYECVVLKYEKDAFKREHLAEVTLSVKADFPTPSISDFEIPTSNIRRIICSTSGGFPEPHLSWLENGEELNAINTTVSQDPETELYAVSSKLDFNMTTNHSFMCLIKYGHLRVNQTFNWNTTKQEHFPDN

T2: human B7-2Fc fusion protein (human, UniProt P42081 24-245, limits assumed)
T2 construct: Used biotinylated in ELISA; also called hB7-2Fc; CD86
T2 sequence (looked up): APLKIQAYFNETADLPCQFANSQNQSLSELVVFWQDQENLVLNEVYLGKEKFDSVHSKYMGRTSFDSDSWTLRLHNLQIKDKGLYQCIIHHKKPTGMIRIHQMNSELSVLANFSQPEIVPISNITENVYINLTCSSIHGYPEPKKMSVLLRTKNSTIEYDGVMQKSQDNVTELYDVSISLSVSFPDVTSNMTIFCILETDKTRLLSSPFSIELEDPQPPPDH


Columns and labels:
[1] = target: T1, human B7-1Fc fusion protein; test: ELISA, summary grade
[2] = target: T2, human B7-2Fc fusion protein; test: ELISA, summary grade

| Binder | binding result [1] | binding result [2] |
| --- | --- | --- |
| CTLA-4Fc mutant protein M1 (Fc fusion, mature protein with IgG1 Fc; also called Mutant 1) IQVTQPSVVLASSRGIASFVCEYASPGKATEVRVTVLRQADSQVTEVCAATYMMGNELTFLDDSICTGTSSGNQVNLTIQGLRAMDTGLYICKVELMYPPPYYLGIGNGTQIYVIDPEPCPDSDQ[sequence of human IgG1 Fc with changes not given] | binds |  |
| CTLA-4Fc mutant protein M3 (Fc fusion, also called Mutant 3) MHVAQPAVVLASSRGIASFVCEYASPSHNTDEVRVTVLRQADSQVTEVCAATYMMGNELTFLDDSICTGTSSGNQVNLTIQGLRAMDTGLYICKVELMYPPPYYLGIGNGTQIYVIDPEPCPDSDQ[sequence of human IgG1 Fc with changes not given] | binds |  |
| CTLA-4Fc mutant protein M5 (Fc fusion, also called Mutant 5) MHVAQPAVVLASSRGIASFVCEYASPGKATEVRVTVLRQADSQVTEVCAATFTEKNTVGFLDDSICTGTSSGNQVNLTIQGLRAMDTGLYICKVELMYPPPYYLGIGNGTQIYVIDPEPCPDSDQ[sequence of human IgG1 Fc with changes not given] | binds |  |
| CTLA-4Fc mutant protein M7 (Fc fusion, also called Mutant 7) MHVAQPAVVLASSRGIASFVCEYASPGKATEVRVTVLRQADSQVTEVCAATYMMGNELTFLDYPFCSGTSSGNQVNLTIQGLRAMDTGLYICKVELMYPPPYYLGIGNGTQIYVIDPEPCPDSDQ[sequence of human IgG1 Fc with changes not given] | binds |  |
| CTLA-4Fc mutant protein M8 (Fc fusion, also called Mutant 8) MHVAQPAVVLASSRGIASFVCEYASPGKATEVRVTVLRQADSQVTEVCAATYMMGNELTFLDDSICTGTFNESRVNLTIQGLRAMDTGLYICKVELMYPPPYYLGIGNGTQIYVIDPEPCPDSDQ[sequence of human IgG1 Fc with changes not given] | binds |  |
| CTLA-4Fc mutant protein M12 (Fc fusion) IQVTQPSVVLASSRGIASFVCEYASPGKATEVRVTVLRQADSQVTEVCAATFTEKNTVGFLDDSICTGTFNESRVNLTIQGLRAMDTGLYICKVELMYPPPYFVGMGNGTQIYVIDPEPCPDSDQ[sequence of human IgG1 Fc with changes not given] | binds |  |
| CTLA-4Fc mutant protein M14 (Fc fusion) IQVTQPSVVLASSRGIASFVCEYASPGKATEVRVTVLRQADSQVTEVCAATFTEKNTVGFLDDSICTGTSSGNQVNLTIQGLRAMDTGLYICKVELMYPPPYFVGMGNGTQIYVIDPEPCPDSDQ[sequence of human IgG1 Fc with changes not given] | binds |  |
| CTLA-4Fc mutant protein M17 (Fc fusion) MHVAQPAVVLASSRGIASFVCEYASPGKYTEVRVTVLRQADSQVTEVCAATYMMGNELTFLDDSICTGTSSGNQVNLTIQGLRAMDTGLYICKVELMYPPPYFEGMGNGTQIYVIDPEPCPDSDQ[sequence of human IgG1 Fc with changes not given] | binds | binds |
| CTLA-4Fc mutant protein M17-2 (Fc fusion) MHVAQPAVVLASSRGIASFVCEYASPGKYTEVRVTVLRQADSQVTEVCAATYMMGNELTFLDDSICTGTSSGNQVNLTIQGLRAMDTGLYICKVELMYPPPYFEGIGNGTQIYVIDPEPCPDSDQ[sequence of human IgG1 Fc with changes not given] | binds | binds |
| CTLA-4Fc mutant protein M17-3 (Fc fusion) MHVAQPAVVLASSRGIASFVCEYASPGKYTEVRVTVLRQADSQVTEVCAATYMMGNELTFLDDSICTGTSSGNQVNLTIQGLRAMDTGLYICKVELMYPPPYFDGIGNGTQIYVIDPEPCPDSDQ[sequence of human IgG1 Fc with changes not given] | binds |  |
| CTLA-4Fc mutant protein M17-4 (Fc fusion) MHVAQPAVVLASSRGIASFVCEYASPGKYTEVRVTVLRQADSQVTEVCAATYMMGNELTFLDDSICTGTSSGNQVNLTIQGLRAMDTGLYICKVELMYPPPYFVGIGNGTQIYVIDPEPCPDSDQ[sequence of human IgG1 Fc with changes not given] | binds | binds |
| CTLA-4Fc mutant protein M9 (Fc fusion, also called Mutant 9) MHVAQPAVVLASSRGIASFVCEYASPGKATEVRVTVLRQADSQVTEVCAATYMMGNELTFLDDSICTGTSSGNQVNLTIQGLRAMVDTGLYICKVELMYPPPYYLGIGNGTQIYVIDPEPCPDSDQ[sequence of human IgG1 Fc with changes not given] | no binding |  |
| CTLA-4Fc mutant protein M10 (Fc fusion, also called Mutant 10) MHVAQPAVVLASSRGIASFVCEYASPGKATEVRVTVLRQADSQVTEVCAATYMMGNELTFLDDSICTGTSSGNQVNLTIQGLRAMMDTGLYLCKVELMYPPPYYLGIGNGTQIYVIDPEPCPDSDQ[sequence of human IgG1 Fc with changes not given] | no binding |  |
